# Results published in PubChem BioAssay (NCATS).
# This list was built around the results that the source calls inconclusive (neither active nor inactive); the mix of calls is not that of the screen. Potencies of inconclusive entries are left out as doubtful fits. Active and inactive are the calls of the source. Calls come from the whole dose curve; as a rule, active = well fitted inhibition curve with a large enough effect; inconclusive = small, poorly fitted or top-dose-only effect; inactive = no such curve, though single readings can be large or run the other way.
# Assay: qHTS assay for measurement of the activity of small molecule inhibitors on Zika virus induced Caspase-3 activity in human iPSC derived neural progenitor cells (hNPCs) (AID 1224857); note: nearly all actives have a fitted effect of over 65% in size
# Conditions: hNPCs ZIKV-induced caspase-3/7, Caspase-Glo luminescence, 6 h; series mostly up to 45.7 µM
# Outline: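 Quantitative HTS format: human iPSC neural progenitors, 1 h compound pretreatment, ZIKV 2 FFU/cell for 6 h at 37 C. Percent inhibition derived from luminescent caspase-3/7 signal between uninfected and infected controls.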
# Potency is the fitted concentration of half-maximal effect; tags give direction and shape of the fitted curve.
row,SMILES,Potency
1,CCCC(=O)OC[C@@H](OC(=O)CCC)[C@@H](OC(=O)CCC)[C@H](Cn1c2nc(=O)[nH]c(=O)c-2nc2cc(C)c(C)cc21)OC(=O)CCC,"inconclusive [inhibitor, single point]"
2,CN(C)c1cc(NC(=O)CNC(C)(C)C)c(O)c2c1C[C@@H]1C[C@H]3[C@H](N(C)C)C(=O)C(C(N)=O)=C(O)[C@@]3(O)C(=O)C1=C2O,"inconclusive [inhibitor, partial curve, poor fit]"
3,NO,inactive
4,CC1=C(CC(=O)O)c2cc(F)ccc2/C1=C\c1ccc(S(C)=O)cc1 (configuration not stated),"inconclusive [inhibitor, single point]"
5,COc1ccc(-c2cc(=S)ss2)cc1,"inconclusive [inhibitor, partial curve, poor fit]"
6,c1ccc2c(c1)CCc1ccccc1N2,inactive
7,COC(=O)C1=C(C)NC(C)=C(C(=O)OCC(C)C)C1c1ccccc1[N+](=O)[O-] (configuration not stated),"inconclusive [inhibitor, single point]"
8,Nc1c(CC(=O)O)cccc1C(=O)c1ccc(Br)cc1,"inconclusive [inhibitor, partial curve, poor fit]"
9,COc1cc(NC(C)CCCN)c2ncccc2c1 (configuration not stated),"inconclusive [inhibitor, full curve, poor fit]"
10,O=C(O)CN(CCOCCOCCN(CC(=O)O)CC(=O)O)CC(=O)O,inactive
11,COc1ccc2cc(CCC(C)=O)ccc2c1,inactive
12,CCCSc1ccc2nc(NC(=O)OC)[nH]c2c1,"inconclusive [inhibitor, single point]"
